# Source: PubChem BioAssay AID686978 (National Center for Advancing Translational Sciences (NCATS), 2013)
# Screen size: about 420,000 compounds; about 64,000 (15%) were called active. The shares of active, inactive and inconclusive entries below differ from those in the screen. Calls follow the shape of the dose curve; as a rule, active = well fitted inhibition curve with a large enough effect; inconclusive = small, poorly fitted or top-dose-only effect; inactive = flat fitted curve, though single readings scatter. Potencies of inconclusive entries are left out as doubtful fits.
# Experiment: qHTS for Inhibitors of human tyrosyl-DNA phosphodiesterase 1 (TDP1): qHTS in cells in absence of CPT; also: nearly all actives have a fitted effect of over 55% in size
# Settings: DT40 Tdp1-/- hTDP1 cells, no CPT, ATP luminescence, 48 h; series mostly up to 46.2 µM
# Summary of the method: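 Chicken DT40 Tdp1-/- cells stably complemented with human TDP1 were seeded at 400 cells/well with DMSO in place of 20 nM camptothecin. After compound pinning, cells grew at least 48 hr at 37 °C; viability read by CellTiter-Glo luminescence.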
# Potency is read from the fitted curve at half-maximal effect; tags tell the direction and shape of the fitted curve.
row,Structure (SMILES),Potency
1,CC1CCN(CCc2nc3cc(NC(=O)COc4ccc(Cl)cc4)ccc3n2C)CC1,"inconclusive [inhibitor, single point]"
2,CCCCCCCCOC(=O)c1nc(Cl)c(Cl)c(N)c1Cl,"inconclusive [inhibitor, single point]"
3,Cc1cc2cc(C)c(NCCNC(=O)c3cccs3)nc2cc1C,"inconclusive [inhibitor, single point]"
4,O=C(CC1N=C2c3ccccc3N=C(SCC(=O)Nc3cccc(Cl)c3)N2C1=O)NCc1cccs1 (stereo unspecified),active: 23.1 µM
5,O=C1NCCN1CCN1C(=O)c2ccccc2NC1c1ccccc1 (stereo unspecified),inactive
6,N#Cc1ccccc1N/C=C/C(=O)c1ccc(Cl)cc1,"inconclusive [inhibitor, single point]"
7,CCOc1ccc(-c2csc(NC(=O)c3ccco3)n2)cc1,"inconclusive [inhibitor, single point]"
8,O=C(N/N=C/C(Br)=C/c1ccccc1)c1cccnc1,active: 2.06 µM
9,N#Cc1cc2c(nc1Cl)CCC2,inactive
10,Cc1ccc(C)n1-c1nnc(N2CCC(C(=O)Nc3ccccc3Br)CC2)s1,active: 16.4 µM
11,S=C(NN=C(C1CC1)C1CC1)Nc1ccccc1,"inconclusive [inhibitor, single point]"
12,CCC1(c2ccccc2)NC(=S)N(c2cccc(C)c2C)N1 (stereo unspecified),"inconclusive [inhibitor, single point]"
13,O=C(NNC(=S)Nc1ccc(Cl)cc1)c1ccccc1,"inconclusive [inhibitor, single point]"
14,O=C(Nc1ccccc1)OC1CCCCc2cccnc21 (stereo unspecified),"inconclusive [inhibitor, single point]"
15,CCOC(=O)c1c(/N=C/N(C)C)sc(/C=N/Nc2ccccc2)c1-c1ccc(Cl)cc1,"inconclusive [inhibitor, partial curve]"
16,COc1ccc2cc(N=Cc3nc(-c4ccc(C)cc4)oc3O)cnc2c1,inactive
17,CC(NC(=O)CCSc1nc(-c2ccco2)cc(C(F)(F)F)n1)c1ccccc1 (stereo unspecified),"inconclusive [inhibitor, single point]"
18,Nc1ccc(-c2nc3ccccc3s2)cn1,"inconclusive [inhibitor, single point]"
19,CCOC(=O)c1cccc(NC(=O)c2ccc(F)cc2F)c1,"inconclusive [inhibitor, single point]"
20,CCOc1ccc(C2NC(=O)NC(c3ccccc3)=C2C(C)=O)cc1OC (stereo unspecified),inactive
21,CCc1nc2c(OCc3ccc(OC)cc3)cccn2c1N(C)C(=O)c1ccc(OC)cc1,"inconclusive [inhibitor, single point]"
22,Cc1ccc(C(=O)C(C)OC(=O)CNS(=O)(=O)c2ccc(C)cc2)cc1 (stereo unspecified),inactive
23,Cc1ccc(-c2noc(CC(=O)c3ccc([N+](=O)[O-])cc3)n2)cc1,"inconclusive [inhibitor, single point]"

row,Structure (SMILES),Potency
1,CC(=O)Nc1ccc2c(c1)C(=O)N(C1CCCCC1)C2=O,inactive
2,COc1ccc2c(c1)c(CC(=O)Nc1nnc(C3CC3)s1)c(C)n2C(=O)c1ccc(Cl)cc1,active: 8.2 µM
3,Clc1ccc(-c2nnc3cccc(Cl)n23)c(Cl)c1,"inconclusive [inhibitor, single point]"
4,COc1ccc(C(CNC(=O)CCNS(=O)(=O)c2ccc(Br)cc2)N2CCOCC2)cc1 (stereo unspecified),inactive
5,Cc1cccc(/C=N/Nc2nncc3ccccc23)c1,"inconclusive [inhibitor, partial curve]"
6,CCc1ccc(NC(=O)c2ccc3c(c2)N(Cc2ccc(C)cc2)CCS3)cc1,"inconclusive [inhibitor, single point]"
7,CCOC(=O)C1CCCN(S(=O)(=O)c2cccs2)C1 (stereo unspecified),inactive
8,Cc1ccc(NC(=O)c2ccccc2NC(=O)c2cccnc2)cc1,"inconclusive [inhibitor, single point]"
9,CC(C)(C)CN1C(N)=NC[C@@H]1c1ccccc1,"inconclusive [inhibitor, single point]"
10,COc1ccc(N2CCN(C(=O)COC(=O)c3ccc(C)o3)CC2)cc1,"inconclusive [inhibitor, single point]"
11,O=C(NCC1(N2CCOCC2)CCCCC1)c1cccc(S(=O)(=O)N2CCc3ccccc3C2)c1,"inconclusive [inhibitor, single point]"
12,Cc1ccc2nc(NC(=O)c3ccc(-c4nc5ccccc5s4)s3)sc2c1,"inconclusive [inhibitor, partial curve]"
13,Cc1cc(C)n2nc(SCCCC(=O)c3ccccc3)nc2n1,inactive
14,Cc1ccc(NC(=S)NC(NC(=O)c2ccco2)C(Cl)(Cl)Cl)cc1 (stereo unspecified),"inconclusive [inhibitor, single point]"
15,CCOC(=O)[C@]12CCC=C1N(CCC1=CCCCC1)C(=O)[C@H](CC(=O)N1CCCCC1)C2,active: 13 µM
16,CC(CC(=O)c1ccc(F)cc1)N1CCN(c2ccccc2)CC1 (stereo unspecified),"inconclusive [inhibitor, single point]"
17,N#Cc1cc2c(nc1SCC(O)CS(=O)(=O)Cc1ccc(Cl)cc1)CCCC2 (stereo unspecified),"inconclusive [inhibitor, partial curve]"
18,Cc1ccc(C)c(OCC(=O)OCC(=O)Nc2c(C)nn(-c3ccccc3)c2C)c1,inactive
19,CCCSc1ncccc1C(=O)O,inactive
20,O=C(NC1C(=O)NNC1c1ccccc1)c1ccccc1 (stereo unspecified),"inconclusive [inhibitor, single point]"
21,CC1(C)Cc2c(cnn2-c2ccc(F)cc2)C(NC(=O)c2ccc(=O)oc2)C1 (stereo unspecified),"inconclusive [inhibitor, single point]"
22,O=C(NC1CCCCC1)C(c1ccccc1)N1CCC2(CC1)OCCO2 (stereo unspecified),"inconclusive [inhibitor, partial curve, poor fit]"
23,CC(=O)c1cccc(CN2CCCC(CCC(=O)NCc3ccc(C)o3)C2)c1 (stereo unspecified),"inconclusive [inhibitor, partial curve]"
